# Assay results from the supplement of paper PMC8728848.
# The list shows a part of the results.
# B1: AT5G01260(PC)(40) (Arabidopsis thaliana), Q9LFB0 (protein)
# chain: MIGIGRTLTSSSPSKIILEDLPPGIYRYGTEIFTSVPRKTFHHIKFLRLDSAQSSRILKPVPLRSSSIKDSQVNVEDEEIEASNKTVRVRFQLRKECVFGEHFFIVGDDPVFGGLWDPETALPLNWSDGNVWTVDLDLPVGRLVEFKLLLKAQTGEILWQPGPNRALETWETNKTIRICEDWDNADLQMMIEEDFVPYTNISSIGSEDEDEVLGSVQQNSSVVAVENAGYVSDESAQNSSFSIQSEKTMEPSNGALTAREVIKEAMFTEEESPVLVPGLIPLSDLDNEQVEVINEGKAETFPEVDKKQEPKAERNKKAKVKAISLFEKSEQEAVKSVEQRQYNAVEEEQQRLETEPLGTPDVLFENDIQWGRRTLYKLLSNFRLF
# What was measured:
# Assay in all cases: glycan array binding signal (z-score within array); higher = stronger binding
# Conditions in all cases: glycan notation: IUPAC condensed, linker removed
# [1] = target: Gal(a1-3)Gal
# Summary of the method: (§1)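 Glycan array binding is given as a within-array Z-score, which can be read as non-binding when negative. The arrays, 3228 of them, came from the Consortium for Functional Glycomics database and were retained only where the protein sequence was available. Z-scores were averaged across arrays of the same protein sequence at different concentrations or buffers and across linkers.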
# [2] = target: Gal(a1-3)Gal(b1-3)GlcNAc
# Summary of the method: as §1
# [3] = target: Gal(a1-3)Gal(b1-3)GlcNAc(b1-2)Man
# Summary of the method: as §1
# [4] = target: Gal(a1-3)Gal(b1-3)GlcNAc(b1-2)Man(a1-3)[Gal(a1-3)Gal(b1-3)GlcNAc(b1-2)Man(a1-6)]Man(b1-4)GlcNAc(b1-4)GlcNAc
# Summary of the method: as §1
# [5] = target: Gal(a1-3)Gal(b1-3)GlcNAc(b1-3)GalNAc
# Summary of the method: as §1
# [6] = target: Gal(a1-3)Gal(b1-3)GlcNAc(b1-6)GalNAc
# Summary of the method: as §1
# [7] = target: Gal(a1-3)Gal(b1-3)[Fuc(a1-4)]GlcNAc(b1-2)Man(a1-3)[Gal(a1-3)Gal(b1-3)[Fuc(a1-4)]GlcNAc(b1-2)Man(a1-6)]Man(b1-4)GlcNAc(b1-4)GlcNAc
# Summary of the method: as §1
# [8] = target: Gal(a1-3)Gal(b1-4)Glc
# Summary of the method: as §1
# [9] = target: Gal(a1-3)Gal(b1-4)GlcNAc
# Summary of the method: as §1
# [10] = target: Gal(a1-3)Gal(b1-4)GlcNAc(b1-2)Man
# Summary of the method: as §1
# [11] = target: Gal(a1-3)Gal(b1-4)GlcNAc(b1-2)Man(a1-3)[Gal(a1-3)Gal(b1-4)GlcNAc(b1-2)Man(a1-6)]Man(b1-4)GlcNAc(b1-4)GlcNAc
# Summary of the method: as §1
# [12] = target: Gal(a1-3)Gal(b1-4)GlcNAc(b1-3)GalNAc
# Summary of the method: as §1
# [13] = target: Gal(a1-3)Gal(b1-4)GlcNAc(b1-6)GalNAc
# Summary of the method: as §1
# [14] = target: Gal(a1-3)Gal(b1-4)[Fuc(a1-3)]GlcNAc
# Summary of the method: as §1
# [15] = target: Gal(a1-3)Gal(b1-4)[Fuc(a1-3)]GlcNAc(b1-2)Man(a1-3)[Gal(a1-3)Gal(b1-4)[Fuc(a1-3)]GlcNAc(b1-2)Man(a1-6)]Man(b1-4)GlcNAc(b1-4)GlcNAc
# Summary of the method: as §1
# [16] = target: Gal(a1-3)GalNAc
# Summary of the method: as §1
# [17] = target: Gal(a1-3)[Gal(a1-4)]Gal(b1-4)GlcNAc
# Summary of the method: as §1
# [18] = target: Gal(a1-4)Gal(b1-3)GlcNAc(b1-2)Man(a1-3)[Gal(a1-4)Gal(b1-3)GlcNAc(b1-2)Man(a1-6)]Man(b1-4)GlcNAc(b1-4)GlcNAc
# Summary of the method: as §1
# [19] = target: Gal(a1-4)Gal(b1-4)Glc
# Summary of the method: as §1
# [20] = target: Gal(a1-4)Gal(b1-4)GlcNAc
# Summary of the method: as §1
# [21] = target: Gal(a1-4)Gal(b1-4)GlcNAc(b1-2)Man(a1-3)[Gal(a1-4)Gal(b1-4)GlcNAc(b1-2)Man(a1-6)]Man(b1-4)GlcNAc(b1-4)GlcNAc
# Summary of the method: as §1
# [22] = target: Gal(a1-4)Gal(b1-4)GlcNAc(b1-3)Gal(b1-4)Glc
# Summary of the method: as §1
# [23] = target: Gal(a1-4)GlcNAc
# Summary of the method: as §1
# [24] = target: Gal(a1-6)Glc
# Summary of the method: as §1
# [25] = target: Gal(b1-2)Gal
# Summary of the method: as §1
# [26] = target: Gal(b1-3)Gal
# Summary of the method: as §1
# [27] = target: Gal(b1-3)Gal(b1-4)GlcNAc
# Summary of the method: as §1
# [28] = target: Gal(b1-3)GalNAc
# Summary of the method: as §1
# [29] = target: Gal(b1-3)GalNAc(a1-3)[Fuc(a1-2)]Gal(b1-4)Glc
# Summary of the method: as §1
# [30] = target: Gal(b1-3)GalNAc(a1-3)[Fuc(a1-2)]Gal(b1-4)GlcNAc
# Summary of the method: as §1
# [31] = target: Gal(b1-3)GalNAc(b1-3)Gal
# Summary of the method: as §1
# [32] = target: Gal(b1-3)GalNAc(b1-3)Gal(a1-4)Gal(b1-4)Glc
# Summary of the method: as §1
# [33] = target: Gal(b1-3)GalNAc(b1-4)Gal(b1-4)Glc
# Summary of the method: as §1
# [34] = target: Gal(b1-3)GalNAc(b1-4)[Neu5Ac(a2-3)]Gal(b1-4)Glc
# Summary of the method: as §1
# [35] = target: Gal(b1-3)GlcNAc
# Summary of the method: as §1
# [36] = target: Gal(b1-3)GlcNAc(a1-3)Gal(b1-4)GlcNAc
# Summary of the method: as §1
# [37] = target: Gal(b1-3)GlcNAc(a1-6)Gal(b1-4)GlcNAc
# Summary of the method: as §1
# [38] = target: Gal(b1-3)GlcNAc(b1-2)Man
# Summary of the method: as §1
binder,measurement,setting,value
B1,glycan array binding signal (z-score),[1],0.282
same,glycan array binding signal (z-score),[2],0.182
same,glycan array binding signal (z-score),[3],-0.515
same,glycan array binding signal (z-score),[4],0.163
same,glycan array binding signal (z-score),[5],-0.258
same,glycan array binding signal (z-score),[6],-0.575
same,glycan array binding signal (z-score),[7],0.054
same,glycan array binding signal (z-score),[8],-0.327
same,glycan array binding signal (z-score),[9],-0.113
same,glycan array binding signal (z-score),[10],-0.337
same,glycan array binding signal (z-score),[11],-0.127
same,glycan array binding signal (z-score),[12],-0.235
same,glycan array binding signal (z-score),[13],-0.159
same,glycan array binding signal (z-score),[14],-0.238
same,glycan array binding signal (z-score),[15],-0.425
same,glycan array binding signal (z-score),[16],2.32
same,glycan array binding signal (z-score),[17],9.44
same,glycan array binding signal (z-score),[18],-0.012
same,glycan array binding signal (z-score),[19],1.85
same,glycan array binding signal (z-score),[20],0.56
same,glycan array binding signal (z-score),[21],-0.382
same,glycan array binding signal (z-score),[22],-0.501
same,glycan array binding signal (z-score),[23],-0.448
same,glycan array binding signal (z-score),[24],0.604
same,glycan array binding signal (z-score),[25],-0.57
same,glycan array binding signal (z-score),[26],0.058
same,glycan array binding signal (z-score),[27],0.044
same,glycan array binding signal (z-score),[28],-0.493
same,glycan array binding signal (z-score),[29],-0.096
same,glycan array binding signal (z-score),[30],-0.621
same,glycan array binding signal (z-score),[31],-0.418
same,glycan array binding signal (z-score),[32],0.025
same,glycan array binding signal (z-score),[33],2.16
same,glycan array binding signal (z-score),[34],-0.614
same,glycan array binding signal (z-score),[35],-0.349
same,glycan array binding signal (z-score),[36],-0.517
same,glycan array binding signal (z-score),[37],0.125
same,glycan array binding signal (z-score),[38],-0.276
